Data as given in PubChem BioAssay AID686978 (National Center for Advancing Translational Sciences (NCATS), 2013).
Values joined by “and” are separate entries in the source; they are usually repeats but may differ in a detail not shown here. Identical values can stand only once. In all, about 420,000 compounds went through this assay and about 64,000 (15%) were called active. Inconclusive results, whose numbers are uncertain, are shown with a selection of clear calls. Calls follow the shape of the dose curve; as a rule, active = well fitted inhibition curve with a large enough effect; inconclusive = small, poorly fitted or top-dose-only effect; inactive = flat fitted curve, though single readings scatter. No potency is given beside an inconclusive call; the fits are too rough.

Assay: qHTS for Inhibitors of human tyrosyl-DNA phosphodiesterase 1 (TDP1): qHTS in cells in absence of CPT; also: nearly all actives have a fitted effect of over 55% in size
Conditions: DT40 Tdp1-/- hTDP1 cells, no CPT, ATP luminescence, 48 h; activity change, negative = growth inhibition: at 46.2 µM (top of the series) unless noted
Method in brief: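 Compound effects on proliferation are scored in DT40 Tdp1-/-;hTDP1 cells in the absence of CPT. ATP levels (CellTiter-Glo luminescence) are recorded after a ≥48 hr, 37 °C incubation.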
% is scaled to controls: 0 for no effect and ±100 for the full control effect; potency is read from the fitted curve at half-maximal effect; tags tell the direction and shape of the fitted curve.

Structure (SMILES) | Potency | activity change, negative = growth inhibition
CSc1nn(Cc2ccc(C)cc2)c(N)c1S(=O)(=O)c1ccccc1 | active: 23.1 µM | –
O=c1ccn([C@@H]2O[C@H](CNCC3=Cc4cc(O)ccc4OC3)[C@@H](O)[C@H]2O)c(=O)[nH]1 | inactive | –
Cc1ccc(S(=O)(=O)NC(=O)NN2CC3CCCC3C2)cc1 (centres undefined) | inactive | –
CC(C)/C=C/C(=O)N1CCC(N2CCC(C(=O)N3CCOCC3)CC2)CC1 | inactive | –
COc1cc(NC(=O)c2csc(N)n2)cc(C(=O)Nc2cccc(C(F)(F)F)c2)c1 | active: 4.61 µM and active: 2.91 µM | –
CCN(CC(=O)Nc1cc(Cl)ccc1C)C(=O)Cc1sc(C)nc1-c1ccc(F)cc1 | inconclusive [inhibitor, partial curve] | –
C=CCn1c2ccccc2c2nnc(SCC(=O)OCN3C(=O)c4ccccc4C3=O)nc21 | inactive | –
Cc1oc2c(Cl)c(Cl)c(O)c(CN(C)C)c2c1C(=O)c1ccc(Cl)cc1 | inconclusive [inhibitor, partial curve] | –
Cc1sc(NC(=O)c2cc(-c3ccc(Cl)cc3)nc3ccccc23)c(C(N)=O)c1C | active: 10.3 µM | –
O=C(CCCn1c(=O)c2cccn2c2ccccc21)NCCc1ccc(Cl)cc1 | inconclusive [inhibitor, single point] | –
CSCCC(NC(=O)COc1ccccc1)C(=O)N1CCN(c2ccccc2Cl)CC1 (centres undefined) | inconclusive [inhibitor, single point] | –
CCCNC(=O)c1cn(CC)c2cc(N3CCN(C(=O)c4ccco4)CC3)c(F)cc2c1=O | active: 20.6 µM | –
O=c1[nH]c2ccccc2n1CCC1CCCCC1 | – | inconclusive: -33.9% [inhibitor]
CCCOc1cccc(C(=O)Nc2cc(NC(=O)c3ccco3)ccc2OC)c1 | inconclusive [inhibitor, single point] | –
CC(=O)Nc1c(C)ccc(CNC(=O)COc2cc(C)ccc2C)c1C | inactive | –
Cc1c(CC(=O)NCc2ccc(F)cc2)c(=O)oc2cc(O)c(Cl)cc12 | inconclusive [inhibitor, partial curve, poor fit] | –
Cc1ccc(C)c(S(=O)(=O)N2CCN(C(=O)c3ccc(C)s3)CC2)c1 | inconclusive [inhibitor, single point] | –
COc1cccc(NC(=O)c2ccc(S(=O)(=O)NCc3cccnc3)cc2)c1 | inconclusive [inhibitor, single point] | –
N#CCCn1c(=O)c(-c2ccccc2)nc2cnc(N3CCNCC3)nc21 | inconclusive [inhibitor, single point] | –
